PubChem BioAssay AID1963576 (National Center for Advancing Translational Sciences (NCATS), 2024)
In all, about 46,000 compounds went through this assay and about 60 (0.1%) were called active. Roughly 3% stayed inconclusive and do not appear here. Calls come from the whole dose curve; as a rule, active = well fitted inhibition curve with a large enough effect; inconclusive = small, poorly fitted or top-dose-only effect; inactive = no such curve, though single readings can be large or run the other way. Some of the results follow.

Test: Primary qHTS assay for Inhibitors of ovarian cancer metastasis using an organotypic tumor microenvironment (TME) model.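 For activity change, negative = inhibition: plate controls were DMSO wells for no effect and tomatine positive control wells for full effect.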 Note: nearly all actives have a fitted effect of over 65% in size.
Conditions: SKOV3ip1-GFP adhesion/invasion on 3D omental model, fluorescence; series mostly up to 45.8 µM; activity change, negative = inhibition: at the top concentration
How it was run: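 qHTS, 4-pt dose (0.36-46 umol/L); SKOV3ip1-GFP, 1,200 cells/well, no FBS; primary omental fibroblast/mesothelial co-culture 48 h pre-grown; 2 h RT + 16 h 37 C; PBS wash, 4% PFA; GFP count 488/509 nm.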

Activity change, negative = inhibition, inactive:
Cc1ccc2cccc(NC(=O)c3ccc(-c4cccc([N+](=O)[O-])c4)o3)c2n1 9.17%
COc1cc(OC)c(NC(=O)NC(C)c2c(-n3cccc3)sc(C)c2C)cc1Cl (stereo unspecified) -7.96%
CCCCNC(=O)CSc1nc2nc(C)c(Cc3ccccc3C)c(C)n2n1 -2.04%
COc1cc(NS(=O)(=O)c2ccc(NC(=O)c3ccccc3C(=O)O)cc2)nc(OC)n1 2.15%
CC(=O)Nc1cccc(C(=O)NCc2ccc3c(c2)CCN3C(=O)c2ccccc2)c1 4.06%
CCC1CCc2nc3sc(C(=O)Nc4ccc(F)cc4F)c(N)c3cc2C1 (stereo unspecified) -9.09%
CCOC(=O)c1sc(NC(=O)/C=C/c2ccc(OCC)cc2)c(C(=O)OCC)c1C -22.8%
C[N+]1(C)[C@@H]2CC(OC(=O)[C@H](CO)c3ccccc3)C[C@H]1[C@H]1O[C@@H]12 (stereo partly specified) 9.95%
COc1ccc(C(=O)N2CC(=O)Nc3ccc(F)cc3C2c2ccc(F)cc2)c(OC)c1 (stereo unspecified) -6.97%
COc1ccc(/C=C/c2nc(C#N)c(NCCc3ccc(OC)c(OC)c3)o2)cc1OC 5.48%
CC(C)CC(=O)Nc1ccc(C(=O)OCc2cc(=O)n3nc(C(C)C)sc3n2)cc1 28.4%
COc1cccc(C(=O)Nc2cc(-c3ccccc3)no2)c1 1.03%
COc1ccc(-n2c(=O)c3ccc(C(=O)NCc4ccc(C)cc4)cc3n(CC(=O)Nc3ccc(F)cc3)c2=O)cc1 -2.75%
NCc1c[nH]c(=S)n1[C@H]1CCc2c(F)cc(F)cc2C1 31.8%
Cc1cc(C)cc(NS(=O)(=O)c2ccc3[nH]cc(C(=O)N4CCCC4)c(=O)c3c2)c1 1.29%
Cc1ccc(NC(=O)c2oc3ccccc3c2NC(=O)c2cc3ccccc3o2)cc1 6.19%
COC(=O)c1ccc(NC(=O)c2cc(S(=O)(=O)N3CCc4ccccc43)cn2C)cc1 10.6%
CC(C)CC(NS(=O)(=O)c1ccc2c(c1)oc(=O)n2C)C(=O)NCCc1ccc(Cl)cc1 (stereo unspecified) -0.659%
CCCCc1nnc(SCc2cc(=O)c3cc(C(=O)OCC)ccc3[nH]2)n1C -3.06%
CC1=C(C(N)=O)C(c2cccc(Br)c2)n2nc(SCc3ccccc3)nc2N1 (stereo unspecified) 19.3%

outcome, inactive:
CCOc1ccc(CCNC(=O)Cn2nnc(-c3ccccc3)n2)cc1OCC
CCOC(=O)c1cc(C)n(CC2CCC(C(=O)Nc3ccc(Cl)cc3)CC2)c1C (stereo unspecified)
O=C(OCc1cc(=O)n2nc(C3CC3)sc2n1)c1ccc(F)cc1
CCOc1ccccc1NC(=O)Cn1cnc2onc(-c3ccc(F)cc3)c2c1=O
O=C(CSc1cn(CCNC(=O)c2c(F)cccc2F)c2ccccc12)Nc1ccc2c(c1)OCCO2
O=C(NCc1cccnc1)C1CCN(Cc2cc3ccccc3n2Cc2cccc(Cl)c2)CC1
